Source: the supplement of paper PMC11417369
± gives the standard deviation of the averaged measurements. The list shows a part of the results.

System: PfAP2-LT AP2 domain (GST-tagged)
Experiment: gcPBM binding intensity (ln(normalized median fluorescence intensity)); higher = stronger DNA binding
Procedure, shortened: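 Each value is the highest Masliner-normalised natural-log median intensity across replicate spots of either orientation of a probe. The probes were primer-extended double-stranded 36-bp intergenic genomic sequences on an Agilent 4 × 180k array, alongside negative controls, exposed for 1 h to GST-tagged P. falciparum DNA-binding domains expressed in E. coli. Bound protein was picked up with Alexa488 anti-GST antibody and scanned at 488 nm.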

| Sequence | gcPBM binding intensity (ln) |
| --- | --- |
| CAAATAAATATTAAAAGTACACACAGATACACTAAT [XGTACX_site3749] | 9.18 ± 0.35 |
| GCTCTATCAAAAAAATGTACACATATTATCATTCAT [XGTACX_site143] | 8.72 ± 0.47 |
| TTTTTATTTAATAGTTGTACATTGAAAAATATGTAT [XGTACX_site3025] | 8.38 ± 0.47 |
| AATATTTATATTTAGTGTACAGAAATAAAAAAAAAA [XGTACX_site6066] | 8.53 ± 0.49 |
| ATATACATTTAAATGTGTACATAATAAAATAAAAAA [XGTACX_site8170] | 8.81 ± 0.42 |
| CAAAAAAAAAAAAAAACACACATTAAATTAGAAAGA [CACACA_site7271] | 8.62 ± 0.54 |
| GCTAATTTATTTTGCAGTACATATATAATAATATAT [XGTACX_site478] | 8.63 ± 0.42 |
| TCCTCATTTTATCATACACACTTGTTTATATGGGTG [CACACA_site4650] | 9 ± 0.44 |
| ACCCATAAAAATTATGCACACTTAATAAAGCGAAAT [CACACA_site5722] | 8.96 ± 0.46 |
| ATAATTTATTTTAAAAGTACTCAATTTGCTTTTCTC [XGTACX_site5749] | 8.65 ± 0.47 |
| TTTACAAAAAATTATACACACACGTACAGATAAATA [CACACA_site4678] | 9.26 ± 0.33 |
| TATATTTATTATAATTGTACATAAAATAAACTAAGA [XGTACX_site4318] | 8.4 ± 0.4 |
| AAATAATTAAACATATGTACATATTATATATATATA [XGTACX_site6774] | 8.94 ± 0.19 |
| TTTTAAAGTTGTGAGCTTCATTTTTATTTATATGTA [CACACA_negctrl_site1505] | 8.61 ± 0.54 |
| TTACAATTAATAAAGTGTACTTAACTATTATATATA [XGTACX_site481] | 8.43 ± 0.4 |
| TTGATCTATAATAATACACACTTACATAATTAATTA [CACACA_site6273] | 8.6 ± 0.45 |
| ATATATATATATGTCTGTACATAAAAAATAATAAAT [XGTACX_site3122] | 8.975 ± 0.064 |
| GGAAAATGAAAAACAAAAAAAAAAAAAAAAAAATGA [TGCATGCA_negctrl_site432] | 8.57 ± 0.53 |
| ATATTCCTACATACAACACACGACGTTCTCATAAGA [CACACA_site231] | 8.93 ± 0.29 |

| Sequence | gcPBM binding intensity (ln) |
| --- | --- |
| AAAAATAGACAAAAGAGTACAAGAAAAAAAGGGTTC [XGTACX_site7843] | 8.98 ± 0.55 |
| ACATCTGTTATTTGTGGTACTAAAAAAATATATAGT [XGTACX_site8322] | 8.63 ± 0.36 |
| TCTTTTTAGATATATACACACCGTGTCTACCTATAC [CACACA_site7551] | 9.29 ± 0.73 |
| ATAATATAAATACAAACACACAATTGTGTCCACATT [CACACA_site6920] | 9.28 ± 0.38 |
| TTTTTAAATATAAACAAAAAAAAAAAATATATCAAT [XGTACX_negctrl_site328] | 8.31 ± 0.29 |
| ATCATATTTATGTTGGTGCATTATGCATGGATTTTA [GTGCAC_site9795] | 8.74 ± 0.47 |
| ATTTTTATTTTTATTTGTACTTATATATTCTTAAGC [XGTACX_site4122] | 8.85 ± 0.47 |
| TATATGTATAGAAAATGTACATATAAATATATATAT [XGTACX_site3420] | 8.88 ± 0.45 |
| TTTTTTTTTTTTTGCACACACCATATTTATAGAAAT [CACACA_site5772] | 9.21 ± 0.38 |
| TAAAATTAATTTCTGTTGCACTTATTATTAATTAAC | 8.73 ± 0.42 |
| ATATTATACCCGTGTACACATTATAACCATATATAA [CACACA_site5933] | 8.88 ± 0.42 |
| AATATAATATAATGCACACATAAAACAAAAAAAAAA [CACACA_site3012] | 9.22 ± 0.49 |
| AAATATATCATACAAAGTACTTGGAATTAATATATA [XGTACX_site8907] | 8.71 ± 0.44 |
| GTTGATACATGAAGCTGTACATAATATTTGTCATTT [XGTACX_site8628] | 8.96 ± 0.36 |
| TCTTTTAAATAACAACATAAATAAATAAATAAATAA [GTGCAC_negctrl_site319] | 8.28 ± 0.37 |
| TAATTTTTCCAACTTTGTACAGATATATTAATAAAA [XGTACX_site7856] | 8.13 ± 0.35 |
| TAAATTAATAAACAAGTGCATATATATATATATATA | 9.65 ± 0.67 |
| TTTTTACTATTTATATGACTAAAAATATATTGAATA [CACACA_negctrl_site188] | 8.26 ± 0.53 |
| GTCATATTAATATGTACACACATATTTATATTTATA [CACACA_site6798] | 8.93 ± 0.47 |

| Sequence | gcPBM binding intensity (ln) |
| --- | --- |
| TTTTATGTAACATCACGTACTTATATTTAAGTATTC [XGTACX_site7459] | 8.96 ± 0.47 |
| CAAGCACACGGACACACACACACACGCGCACGCACA [CACACA_site6307] | 10.3 ± 0.28 |
| CAATTTATTTTTATTACACACTATCCAAGTAATTTC [CACACA_site7402] | 8.79 ± 0.42 |
| TATAGCAAAAAATTTACACACATGTTTTTTCTATAC [CACACA_site325] | 9.08 ± 0.42 |
| GGCATTTTATGAAGTAGTACCATAAATATTAAAGAT [XGTACX_site5287] | 8.88 ± 0.49 |
| CTGAAGGAAAAAGAAAGTACTTTTTTTTTTTTGAAG [XGTACX_site5973] | 8.22 ± 0.68 |
| CCTTTATTTTATATGTGTACTAAATTGTATATATAT [XGTACX_site8717] | 8.86 ± 0.42 |
| ATGTTTTATAAAAGGCGTACACATATGCTTAAGTAA [XGTACX_site6232] | 8.9 ± 0.35 |
| AAAAAAAAAATATCATGTACAAATATAATAAAATTT [XGTACX_site3896] | 8.7 ± 0.55 |
| AAATTTTTTATGAACACACAAATACACGCACTCAAA [CACACA_site7286] | 9.1 ± 0.27 |
| AATAATAAAATAAAGGCATGCACAATATGCTATAAA [TGCATGCA_site645] | 9.07 ± 0.5 |
| TAAAATATATAAAACTGTACATTTTAAAGGCACAAC [XGTACX_site8342] | 8.87 ± 0.37 |
| TATGTATCAAATAAATGTACATATATATATATATAT [XGTACX_site2189] | 9.39 ± 0.26 |
| AATTAAAATAGTAATACACACTTCATAGGAAATGAT [CACACA_site5045] | 8.84 ± 0.4 |
| ATGAAAAAATTTAAATGTACATTACATATATTTATT [XGTACX_site2524] | 8.59 ± 0.45 |
| TAATATTATATTATATGTACATAACAAATTATATTT [XGTACX_site4296] | 8.61 ± 0.49 |
| TTTTTTTCTCTTTTTATTACAAAAAGGGTTTATATA [TGCATGCA_negctrl_site75] | 8.39 ± 0.61 |
| ATTATATTAATATATATATATATATATATAATAATA [CACACA_negctrl_site437] | 8.69 ± 0.3 |
| ATGAGTAACATATTTGTGCACATATGGTTATTTTTA [GTGCAC_site9541] | 8.9 ± 0.33 |
